Measurements from PubChem BioAssay AID1347120 (National Center for Advancing Translational Sciences (NCATS), 2019).
Screen size: about 390,000 compounds; about 930 (0.24%) were called active. This list was built around the results that the source calls inconclusive (neither active nor inactive); the mix of calls is not that of the screen. Calls follow the shape of the dose curve; as a rule, active = well fitted activation curve with a large enough effect; inconclusive = small, poorly fitted or top-dose-only effect; inactive = no such curve, though single readings can be large or run the other way. A potency beside an inconclusive call is a rough fit, not a confirmed value.

Assay: qHTS for Suppressors of FUS Proteinopathy: Primary screen using FUS-linked yeast assay; also: nearly all actives have a fitted effect of over 55% in size
Conditions: S. cerevisiae FUS-expressing, OD600, 24 h; Potency: growth rescue; series mostly up to 76.6 µM
How it was run: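 Toxicity suppression screen in FUS-yeast. Cells induced with 2% galactose, starting OD 0.005, treated 24hr at 30C with compounds at multiple final concentrations; growth by OD600.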
Potency is read from the fitted curve at half-maximal effect; tags tell the direction and shape of the fitted curve.

| Structure (SMILES) | Potency |
| --- | --- |
| COc1ccc(Cc2nnc(NC(=O)c3c(-c4ccccc4)noc3C)s2)cc1 | inconclusive: 25.1 µM [activator, partial curve, poor fit] |
| Cc1ccc(NC(=O)Cn2cc(C(F)(F)F)cc(Cl)c2=O)cc1S(=O)(=O)N1CCCCC1 | inconclusive: 20 µM [activator, partial curve] |
| O=C(OCc1cn([C@H]2C[C@H](c3ccc(Cl)cc3)N(C(=O)C3CCCCC3)C[C@@H]2O)nn1)c1ccccc1 | inconclusive: 50.1 µM [activator, single point] |
| O=c1[nH]cnc2onc(-c3ccc(F)cc3)c12 | inactive |
| CCOC(=O)c1ccc(N2C(=O)c3[nH]nc(-c4ccc(OC)cc4)c3C2c2ccc(C)cc2)cc1 (centres undefined) | inconclusive: 25.1 µM [activator, partial curve, poor fit] |
| COc1ccc(C2Nc3cccc(O)c3C(=O)N2Cc2ccccc2)cc1COc1ccc(NC(C)=O)cc1 (centres undefined) | active: 11.2 µM |
| O=C1CN(C(=O)c2ccccc2)C(c2ccc(F)cc2)c2cc(Br)ccc2N1 (centres undefined) | inactive |
| COc1cccc(-c2cnc3c(NC(C)=O)cc(-c4ccc(C(=O)NC5CC5)cc4)cn23)c1 | inconclusive: 50.1 µM [activator, single point] |
| COc1ccc(NC(=O)CN(C)C(=O)c2cc3c(s2)CCCCC3)cc1 | inactive |
| Cn1nc(CC(=O)Nc2cccc3ncccc23)c2ccccc2c1=O | inactive |
| COc1ccccc1N1CCN(C(=O)C(NS(=O)(=O)c2cccs2)c2ccccc2)CC1 (centres undefined) | inconclusive: 28.2 µM [activator, single point] |
| CCCc1cc(C(=O)Nc2ccc(C(=O)c3ccc(F)cc3)cc2)n(C)n1 | inconclusive: 8.91 µM [activator, partial curve] |
| C/C(=N/NC(=O)c1cccs1)c1c(C)[nH]n(-c2nc3ccccc3s2)c1=O | inconclusive: 31.6 µM [activator, single point] |
| CCn1cc(C(=O)NCCc2ccc(OC)c(OC)c2)c(=O)c2cc(S(=O)(=O)N3CCc4ccccc4C3)ccc21 | inconclusive: 35.5 µM [activator, single point] |
| Fc1ccc(C2c3[nH]c4ccccc4c3CCN2Cc2cccn2-c2ncccn2)cc1 (centres undefined) | inconclusive: 39.8 µM [activator, single point] |
| COC(=O)[C@@]12CCCCN1[C@H](c1ccc(-c3ccc4c(c3)OCO4)c(OC)c1)[C@@H]1C(=O)N(C)C(=O)[C@@H]12 | active: 11.2 µM |
| CCOC(=O)c1ccc(N=C2C(=S)N(c3ccc(C(=O)OCC)cc3)C(=N)N2/N=C/c2ccccc2)cc1 | active: 28.2 µM |
| O=C(Nc1nccs1)c1cc(N2CCOCC2)nc2ccccc12 | inactive |
| CC1=C(c2ccc(Cl)cc2)S(=O)(=O)N=C1N1CCN(c2cccc(C)c2)C(C)C1 (centres undefined) | inactive |
| COc1ccc(OC)c(C(=O)N(C[C@H]2CC[C@@H]([C@@H]3CC[C@H](CO)O3)O2)C(C(=O)NC(C)(C)C)c2ccc(-c3ccccc3)cc2)c1 (some centres undefined) | inconclusive: 14.1 µM [activator, partial curve, poor fit] |

| Structure (SMILES) | Potency |
| --- | --- |
| CN(c1ccccc1)S(=O)(=O)c1cccc(NC(=O)CN2C(=O)NC3(CCCC3)C2=O)c1 | inconclusive: 28.2 µM [activator, single point] |
| COc1cc2cc(CCCOC(=O)c3cccc(Br)c3)oc(=O)c2cc1OC | inconclusive: 28.2 µM [activator, partial curve, poor fit] |
| COC(=O)CNC(c1ccccc1)c1cc(Br)ccc1NC(=O)c1cc(OC)c(OC)c(OC)c1 (centres undefined) | inconclusive: 14.1 µM [activator, single point] |
| Cc1cc(F)ccc1C(O)c1ncc(-c2ccc3ccccc3c2)[nH]1 (centres undefined) | inactive |
| CCOC(=O)c1ccc(OCC2c3cc(OC)c(OC)cc3CCN2C(=O)Cc2ccc(OC)c(OC)c2)cc1 (centres undefined) | inconclusive: 35.5 µM [activator, single point] |
| O=[N+]([O-])c1cccc(-c2nc(-c3cccs3)c(-c3cccs3)[nH]2)c1 | inactive |
| COc1cccc(OC)c1C(=O)Nn1c(-c2cccc(C)c2)nc2ccccc2c1=O | inconclusive: 44.7 µM [activator, single point] |
| O=C1CC(N2CCC(c3nc4ccccc4o3)CC2)C(=O)N1c1cc(Cl)cc(Cl)c1 (centres undefined) | inconclusive: 50.1 µM [activator, single point] |
| COc1ccc(-c2[nH]c(-c3ccc(F)cc3)nc2SCC(=O)Nc2ccc(OC)c(OC)c2)cc1 | inconclusive: 50.1 µM [activator, single point] |
| COc1ccc(Br)c(Cn2c(C)c(C(=O)NCc3ccc(F)cc3)sc2=O)c1 | inconclusive: 35.5 µM [activator, partial curve, poor fit] |
| Cn1c(=O)[nH]c(=O)c2c1nc(CN1CCN(c3cccc(Cl)c3)CC1)n2CCc1ccccc1 | inconclusive: 50.1 µM [activator, partial curve, poor fit] |
| CN(Cc1ccco1)c1ncnc2ccc(-c3ccc4c(ccn4C)c3)cc12 | inconclusive: 50.1 µM [activator, single point] |
| O=C(CSc1nnc(-c2ccco2)o1)N1CCN(c2ccccc2)CC1 | inactive |
| CCN(CC)C(=S)SCC(=O)Nc1cccc(C(F)(F)F)c1 | inactive |
| O=C(N/N=C/c1c[nH]c2ccccc12)c1cc(-c2cccc3ccccc23)n[nH]1 | inconclusive: 35.5 µM [activator, single point] |
| COC(=O)CCNC(=O)Cc1c(C)n(C(=O)c2ccc(Cl)cc2)c2ccc(OC)cc12 | inconclusive: 15.8 µM [activator, partial curve] |
| C[C@H](O)[C@@H]1C(=O)N2CCc3c([nH]c4ccccc34)[C@@H]2C[C@@H]1N(C)C(=O)Nc1cc(Cl)cc(Cl)c1 | inconclusive: 28.2 µM [activator, single point] |
| COC(=O)C(C)NC(=S)N1CCN(c2c(F)cc3c(=O)c(C(=O)O)cn(C4CC4)c3c2OC)CC1C (centres undefined) | active: 31.6 µM |
| O=[N+]([O-])C1=C(Nc2cccc3ccccc23)CS(=O)(=O)C1 | inconclusive: 25.1 µM [activator, partial curve, poor fit] |
